# Test results from paper PMC4336329 (PLoS ONE, 2015).
# Out of some 310,000 compounds screened, about 14,000 (4.5%) showed an effect of 50% or more. Effects have a minus sign here. The list shows a part of the results.
# Biological target: human ether-à-go-go-related gene (hERG) potassium channel (human, UniProt Q12809)
# Assay: primary screen, population patch clamp on CHO cells stably expressing hERG
# 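Also: peak tail current of the secondary pulse compared with the same well before compound.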
# Chain of human ether-à-go-go-related gene (hERG) potassium channel (Q12809 whole entry, looked up): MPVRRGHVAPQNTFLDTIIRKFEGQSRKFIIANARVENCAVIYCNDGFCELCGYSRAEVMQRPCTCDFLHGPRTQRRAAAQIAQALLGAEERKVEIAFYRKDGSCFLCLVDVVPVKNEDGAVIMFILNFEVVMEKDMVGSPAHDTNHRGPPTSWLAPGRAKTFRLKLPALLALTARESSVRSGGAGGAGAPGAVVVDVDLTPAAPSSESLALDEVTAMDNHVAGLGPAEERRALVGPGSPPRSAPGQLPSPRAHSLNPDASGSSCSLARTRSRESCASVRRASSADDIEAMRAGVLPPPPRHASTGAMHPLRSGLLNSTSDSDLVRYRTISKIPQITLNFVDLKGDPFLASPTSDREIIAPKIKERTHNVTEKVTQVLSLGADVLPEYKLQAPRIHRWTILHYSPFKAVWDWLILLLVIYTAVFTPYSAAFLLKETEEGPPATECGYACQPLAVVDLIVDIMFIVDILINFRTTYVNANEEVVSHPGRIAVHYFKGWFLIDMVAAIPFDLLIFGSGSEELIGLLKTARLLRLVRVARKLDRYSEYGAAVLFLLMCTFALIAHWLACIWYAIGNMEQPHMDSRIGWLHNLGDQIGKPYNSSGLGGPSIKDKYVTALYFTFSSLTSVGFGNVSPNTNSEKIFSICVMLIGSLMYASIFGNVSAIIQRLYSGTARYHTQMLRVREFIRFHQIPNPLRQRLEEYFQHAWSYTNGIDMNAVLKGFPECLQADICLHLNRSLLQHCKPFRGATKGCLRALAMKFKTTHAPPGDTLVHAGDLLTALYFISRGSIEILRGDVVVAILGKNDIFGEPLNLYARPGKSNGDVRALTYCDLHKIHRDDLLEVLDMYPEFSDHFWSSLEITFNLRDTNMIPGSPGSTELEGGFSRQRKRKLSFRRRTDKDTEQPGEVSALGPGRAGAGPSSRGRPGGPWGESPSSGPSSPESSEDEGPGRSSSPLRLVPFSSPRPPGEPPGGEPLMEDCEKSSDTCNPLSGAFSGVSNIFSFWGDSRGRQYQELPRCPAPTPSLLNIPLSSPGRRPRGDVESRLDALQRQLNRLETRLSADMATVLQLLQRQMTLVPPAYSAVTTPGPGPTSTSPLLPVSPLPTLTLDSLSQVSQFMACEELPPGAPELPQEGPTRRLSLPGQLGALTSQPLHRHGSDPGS
row,SMILES,"hERG current change (%, negative = inhibition) at 10uM [%]"
1,O=C(Nc1ccc(Cl)c(Cl)c1)C1CCCCC1,-8.42
2,CCOC(=O)NC(=O)/C(C#N)=N\Nc1cccc(OC)c1,24
3,O=C(c1ccccc1)N1N=C(c2ccccc2O)CC1c1ccccc1 (stereo not drawn),6.88
4,Cc1ccc(F)cc1NC(=O)C1CCN(c2cnccn2)CC1,-1.38
5,CCN(CC)C(=O)/C(NC(=O)c1ccccc1)=C(/Sc1ncccn1)c1ccccc1,5.92
6,O=C(N/N=C/c1ccc(O)cc1)/C(=C/c1ccccc1)CCO,-9.24
7,CCOc1ccccc1/C=C(\C#N)C(=O)NC1CC1,13.6
8,CCOc1cc(CNC2CCCC2)ccc1OCc1ccccc1Cl.Cl,-50.6
9,Clc1cccc(Cl)c1CSc1nnc(-c2ccncc2)s1,-14.6
10,Cc1ccc(CNS(=O)(=O)c2ccccc2[N+](=O)[O-])cc1,18.1
11,CCOc1[nH]n(-c2ccccc2)c(=O)c1C=Nc1ccccc1,-2.58
12,CCOCCCn1c(=N)c(C(=O)NCCN2CCOCC2)cc2c(=O)n3cccc(C)c3nc21,-53.6
13,COc1ccc(-n2nc(N)c3c(=O)oc(N(C)C)nc32)cc1,9.77
14,Clc1ccc(N2CCN(c3nc4nonc4nc3N3CCSCC3)CC2)nc1,-14.1
15,CCCOc1ccc2cc(-c3ccccn3)c(=O)oc2c1,-12.3
16,O=C(Nc1nc2c(s1)CN(Cc1ccccc1)CC2)c1cccc(S(=O)(=O)N2CCc3ccccc32)c1,8.42
17,Cn1c(=O)n(C)c2cc([N+](=O)[O-])c(N3CCN(C(=O)C(C)(C)C)CC3)cc21,-8.56
18,CC1=NN(C(=O)c2csc(C(C)C)c2)C(O)(C(F)(F)F)C1 (stereo not drawn),-9.64
19,Cc1cccc(C(=O)NNC(=O)C2CCCO2)c1 (stereo not drawn),-7.56
20,Cc1ccnc(NC(=O)c2ccc(Cl)cc2Cl)n1,-0.909
21,O=C(O)CCCNC(=O)CCCNC(=O)C(c1ccccc1)c1ccccc1,40.1
22,Cc1[nH]c(=O)[nH]c(=O)c1S(=O)(=O)Nc1ccc(Br)cc1F,8.85
23,Cc1cccc(NS(=O)(=O)c2csc(C(N)=O)c2)c1C,9.1

row,SMILES,"hERG current change (%, negative = inhibition) at 10uM [%]"
1,O=C(c1ccc(Cl)cc1)N(Cc1ccccc1F)N1C(=O)CCCC1=O,-4.85
2,O=C(N/N=C/C=C/c1ccco1)c1cccc([N+](=O)[O-])c1,-4.02
3,O=C(Nc1ccc(Cl)c(S(=O)(=O)N2CCOCC2)c1)[C@@H]1CCCN1C(=O)c1cccs1,-57.6
4,CC(C)OC(=O)Cc1ccccc1,11.7
5,CCc1ccccc1NC(=S)N1N=CCC1c1ccccc1 (stereo not drawn),-15.3
6,CCCCNc1cc(=O)oc2ccccc12,-9.92
7,CC(C)c1ccc(NC(=O)Nc2cnccn2)cc1,-20.3
8,CNc1c(NS(=O)(=O)c2ccc(F)cc2)c(=O)oc2ccccc12,15.1
9,COC(=O)Cn1cnc2c(nnn2Cc2ccc(Cl)cc2)c1=O,49.3
10,COCCSc1nnc(NC(=O)c2ccc(OC)c([N+](=O)[O-])c2)s1,2.61
11,COc1ccc2oc(C(=O)N(C)Cc3ccc(OC(F)F)cc3)c(C)c2c1,-53.8
12,CCCc1cc(=O)n2[nH]c(-c3ccc(Cl)cc3)cc2n1,-11.6
13,O=C(c1cccs1)N(Cc1cc2ccccc2[nH]c1=O)CC1CCCO1 (stereo not drawn),-9.66
14,Cc1nn(C)c2ncc(C(=O)c3cc(F)ccc3O)cc12,9.01
15,O=C1CC(c2ccccc2)=NN1c1ccc([N+](=O)[O-])cc1,19.6
16,O=C(CSc1nnc(-c2ccco2)o1)N1CCN(c2ccccc2)CC1,11.5
17,CCc1nnc(NC(=O)c2c(C)nn(-c3ccccc3)c2Cl)s1,17.8
18,COc1cccc(N2CC(O)=C(c3nc4ccccc4c(=O)[nH]3)C2=N)c1,-0.385
19,COc1ccc(OC)c2c1nc1n2CCS1,-6.87
20,COc1cc(OC)c(NC(=S)Nc2cccc(C)c2)cc1Cl,10.3
21,O=c1c2ccccc2nc(-c2ccco2)n1-c1nccs1,-17.1
22,Clc1ccc(/C=N/Nc2nc(Cl)nc3ccccc23)cc1,25
23,COc1cc(C(=O)NC(=S)NNC(=O)[C@H]2C[C@@H]2c2ccccc2)cc(OC)c1OC,17.3

row,SMILES,"hERG current change (%, negative = inhibition) at 10uM [%]"
1,Cc1c(-c2nc(-c3ccc(C(C)(C)C)cc3)no2)n(C)oc1=O,14.4
2,COc1ccc(CNC(=O)C(OC(=O)c2ccco2)c2ccc(F)cc2)cc1 (stereo not drawn),-11.5
3,COC(=O)C1=C(C)N(C)C(C)=C(C(=O)OC)C1c1ccc(Cl)cc1,17.7
4,COc1ccccc1NC(CC(=O)c1ccccc1)C(=O)OCC(=O)c1ccc(F)cc1 (stereo not drawn),-14.3
5,Cc1n[nH]c(C)c1CN(C)C(=O)C1CCC(=O)N(CCc2cccc(F)c2)C1 (stereo not drawn),5.51
6,CCC1CCCCN1CCn1c(=S)[nH]c2cc(OC)c(OC)cc2c1=O (stereo not drawn),-25.4
7,CC(C)(C)c1nc(SCC(=O)N2CCCC2)c2ccccc2n1,12.2
8,O=C(COC(=O)c1cccc([N+](=O)[O-])c1)NC1CCCC1,13.1
9,CCOC(=O)N1CCN(C(=O)c2ccc(NC(C)=O)cc2)CC1,10.1
10,COc1ccc(OCCOCCN2CCc3ccccc3C2)cc1,-69.9
11,CC(C)(C)NCc1cc(Br)ccc1OC1CCCC1.Cl,-53.8
12,Cc1cc(-c2nnc3n2N=C(c2ccc(-c4ccccc4)cc2)CS3)n[nH]1,-15.7
13,Cc1ccc(NC(=O)CNc2cccc(S(=O)(=O)N3CCOCC3)c2)cc1F,-6.71
14,Cc1cc(Cc2cc(C)c(N)cc2C)c(C)cc1N,14.5
15,O=C(COC(=O)c1ccccc1[N+](=O)[O-])Nc1nnc(-c2ccccc2)o1,18.4
16,CC(C)NS(=O)(=O)c1ccc(OCC(=O)NCc2ccc3c(c2)OCO3)c(Cl)c1,-16.2
17,Cc1cccc(C)c1NC(=O)CSc1ccc([N+](=O)[O-])cn1,-12.3
18,CCOC(=O)C1CN(S(=O)(=O)c2ccc(C)cc2)CCN1S(=O)(=O)c1ccc(C)cc1 (stereo not drawn),-0.0378
19,CCOc1ccc(CCNC(=O)c2cc3sc(Cl)cc3n2C)cc1OCC,18.8
20,CN(CC(=O)Nc1ccccc1Br)C(=O)CN1CCN(Cc2ccc(Cl)cc2)CC1,-66.9
21,CC(C)(O)[C@H](O)COc1c2occc2cc2ccc(=O)oc12,10.1
22,CCc1ccc(NSc2ccccc2[N+](=O)[O-])cc1,5.89
23,COc1cc(CCN2C(=O)c3cccc4cccc(c34)C2=O)c(S(=O)(=O)NCCO)cc1OC,-23.8

row,SMILES,"hERG current change (%, negative = inhibition) at 10uM [%]"
1,Cc1cc(C)n(/N=C/c2c[nH]c3ccccc23)c(=O)c1,10.6
2,Cc1[nH]c2ccccc2c1/C=C(\C#N)C(=O)NC1CC1,5.75
3,C=CCn1c(SCC(=O)Nc2ccc(C(=O)OCC)cc2)nnc1-c1sc(N)nc1C,-8.97
4,COc1ccc(C(=O)COC(=O)c2ccco2)cc1,11.5
5,Cc1cc(NC(=O)c2c(F)cccc2Cl)no1,27.5
6,Cc1ccc(NC(=O)CC(=O)NCCN2CCOCC2)cc1,4.65
7,Cc1cccc2nc(CSc3nc4ccccc4[nH]3)cn12,-12.9
8,C=CCn1c(O)c(N=NC(=O)CNC(=O)c2cccs2)c2ccccc21,-28.8
9,COCCn1c(C(F)(F)F)ccc(NC(=O)c2ccccc2)c1=O,-13.6
10,Cc1cc(C(=O)CSc2nc3ccccc3n2C)c(C)n1C,11.1
11,CSc1nnc(-c2cccn(Cc3ccccc3)c2=O)o1,8.73
12,COC(=O)c1ccn(CSc2cc(Cl)ccc2Cl)n1,9.54
13,O=C(CCNC(=O)Cn1cnc2ccccc2c1=O)NCC1CCCO1 (stereo not drawn),9.55
14,Cc1ccc(C(=O)CC(=O)c2ccccc2C)c(O)c1,2.17
15,Cc1nn(CC(=O)NCCCN2CCCC2)c(=O)c2nn(-c3ccccc3)c(C)c12,13.1
16,C[C@@H]1C[C@H]2OC(=O)C3(CO3)[C@H]2[C@H](O)[C@]2(C)C(=O)C3OC3[C@@H]12 (stereo partly drawn),23.2
17,CC(=O)c1cc(-c2ccccc2)n(CCC(=O)NC2CCCC2)c1C,0.876
18,N#CC(C#N)=C1c2cc(S(=O)(=O)NCCO)ccc2-c2ccc(S(=O)(=O)NCCO)cc21,0.947
19,O=C(NC1CCN(Cc2ccccc2)C1)c1cc(S(=O)(=O)N2CCOCC2)ccc1Cl (stereo not drawn),-33.2
20,O=C(Nc1cccc(Cl)c1Cl)c1ccncc1,14.8
21,Cc1nc(SCc2c(F)cccc2Cl)c2c(=O)n(C)c(=O)n(C)c2n1,-11
